# Measurements published in PMC5700166.
# The entries are a selection whose mix differs from that of the whole data set. The list includes weakly bound sequences.
# Biological target: T1, GST-Nv-NF-kB (Cys allele) (UniProt E5G601)
# T1 sequence: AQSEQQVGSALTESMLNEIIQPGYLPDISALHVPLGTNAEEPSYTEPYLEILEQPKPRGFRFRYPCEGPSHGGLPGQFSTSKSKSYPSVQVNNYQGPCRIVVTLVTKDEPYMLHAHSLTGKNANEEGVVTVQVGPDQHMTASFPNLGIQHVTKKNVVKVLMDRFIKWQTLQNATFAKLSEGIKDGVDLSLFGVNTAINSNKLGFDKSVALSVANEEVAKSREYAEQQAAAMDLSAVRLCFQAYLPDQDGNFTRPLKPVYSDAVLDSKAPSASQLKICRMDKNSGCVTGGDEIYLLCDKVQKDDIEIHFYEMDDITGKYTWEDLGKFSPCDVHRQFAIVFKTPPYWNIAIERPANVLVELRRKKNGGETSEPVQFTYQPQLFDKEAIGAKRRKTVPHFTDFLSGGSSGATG
# Test: protein-binding microarray (PBM)
# Conditions: PBM: ~300 nM protein, 6 mM HEPES pH 7.8, 80 mM KCl, 0.5 mM EDTA, 0.5 mM EGTA, 6% glycerol, 35 ng/ul poly-dIdC, 1% milk, 1 h, room temperature; Ap Aiptasia and Nv Nematostella (sea anemones) / Co Capsaspora / Aq Amphimedon (sponge) / Dm Drosophila / Hu human; RHD is the Rel homology domain; high values mean tight binding; most listed sequences are background and not binding sites; double strand, one strand shown
row,Sequence,binding signal
1,CCGATTAACATCACACAATCCCCTGATGTTAATCGGGTCTTGATTCGCTTGACGCTGCTG,6.65 z-score
2,CCGATTAACATCAGGCCACCCCCTGATGTTAATCGGGTCTTGATTCGCTTGACGCTGCTG,2.49 z-score
3,CCGATTAACATCAGGGAATAACCTGATGTTAATCGGGTCTTGATTCGCTTGACGCTGCTG,6.79 z-score
4,CCGATTAACATCAGATCTCCCCCTGATGTTAATCGGGTCTTGATTCGCTTGACGCTGCTG,5.31 z-score
5,CCGATTAACATCAAGGGAAACCCTGATGTTAATCGGGTCTTGATTCGCTTGACGCTGCTG,5.3 z-score
6,CCGATTAACATCAGGGACTTTAATGATGTTAATCGGGTCTTGATTCGCTTGACGCTGCTG,5.92 z-score
7,CCGATTAACATCAAGAGACCCCCTGATGTTAATCGGGTCTTGATTCGCTTGACGCTGCTG,2.88 z-score
8,CCGATTAACATCAGGAAAGACCCTGATGTTAATCGGGTCTTGATTCGCTTGACGCTGCTG,4.11 z-score
9,CCGATTAACATCATCCCCGTGTCTGATGTTAATCGGGTCTTGATTCGCTTGACGCTGCTG,3.34 z-score
10,CCGATTAACATCAAATCACCCCCTGATGTTAATCGGGTCTTGATTCGCTTGACGCTGCTG,4.59 z-score
11,CCGATTAACATCAGGGGAAAGGATGATGTTAATCGGGTCTTGATTCGCTTGACGCTGCTG,5.7 z-score
12,CCGATTAACATCAGGGGCAGTACTGATGTTAATCGGGTCTTGATTCGCTTGACGCTGCTG,1.84 z-score
13,CCGATTAACATCAGGGTTTTCCATGATGTTAATCGGGTCTTGATTCGCTTGACGCTGCTG,2.18 z-score
14,CCGATTAACATCACGGACACCCCTGATGTTAATCGGGTCTTGATTCGCTTGACGCTGCTG,0.797 z-score
15,CCGATTAACATCAGGATATCCCATGATGTTAATCGGGTCTTGATTCGCTTGACGCTGCTG,0.222 z-score
16,CCGATTAACATCAAATGCCCCCCTGATGTTAATCGGGTCTTGATTCGCTTGACGCTGCTG,4.38 z-score
17,CCGATTAACATCACAAAAGCCCCTGATGTTAATCGGGTCTTGATTCGCTTGACGCTGCTG,8.09 z-score
18,CCGATTAACATCACGGGGGAAAATGATGTTAATCGGGTCTTGATTCGCTTGACGCTGCTG,6.21 z-score
19,CCGATTAACATCAACGATTCCCCTGATGTTAATCGGGTCTTGATTCGCTTGACGCTGCTG,6.55 z-score
20,CCGATTAACATCAGGAGGTCCCCTGATGTTAATCGGGTCTTGATTCGCTTGACGCTGCTG,3.71 z-score
21,CCGATTAACATCAGACTTCCCCCTGATGTTAATCGGGTCTTGATTCGCTTGACGCTGCTG,7.38 z-score
22,CCGATTAACATCAGGGGAAGCTATGATGTTAATCGGGTCTTGATTCGCTTGACGCTGCTG,5.26 z-score
23,CCGATTAACATCAAACCCCCCCTTGATGTTAATCGGGTCTTGATTCGCTTGACGCTGCTG,4.97 z-score
24,CCGATTAACATCAGGGGGATAACTGATGTTAATCGGGTCTTGATTCGCTTGACGCTGCTG,4.96 z-score
25,CCGATTAACATCACCCTTTCCCCTGATGTTAATCGGGTCTTGATTCGCTTGACGCTGCTG,5.19 z-score
26,CCGATTAACATCAGGGGGTAAGATGATGTTAATCGGGTCTTGATTCGCTTGACGCTGCTG,3.13 z-score
